# Assay results taken from PubChem BioAssay AID504845 (National Center for Advancing Translational Sciences (NCATS), 2011).
# About 150 (0.038%) of roughly 390,000 compounds were called active. The inconclusive results got no clear call from the source; some entries with a clear call stand among them for comparison. The call rests on the fitted dose curve; in most records, active means well fitted inhibition curve with a large enough effect; inconclusive means small, poorly fitted or top-dose-only effect; inactive means no such curve, though single readings can be large or run the other way. Potencies beside an inconclusive call are fits to weak or partial responses and may not hold up.
# Biological target: Regulator of G-protein signaling 4 (Homo sapiens) (UniProt P49798)
# UniProt P49798, sequence (P49798 whole entry, looked up): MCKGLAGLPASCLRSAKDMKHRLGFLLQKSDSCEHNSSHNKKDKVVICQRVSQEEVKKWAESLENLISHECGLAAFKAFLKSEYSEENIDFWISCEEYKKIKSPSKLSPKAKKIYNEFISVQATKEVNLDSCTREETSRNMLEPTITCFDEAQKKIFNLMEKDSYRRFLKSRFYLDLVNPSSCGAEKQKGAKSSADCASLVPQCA
# Assay: Inhibitors of Regulator of G Protein Signaling (RGS) 4: qHTS; further: nearly all actives have a fitted effect of over 75% in size
# Conditions: Transcreener GDP fluorescence polarization, RGS4-accelerated GTP hydrolysis; series mostly up to 114 µM; activity change, negative = inhibition: at the top concentration
# How it was run: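 MLSMR compounds (23 nl, pin-transferred) preincubated 10 min at room temperature with a 500nM (2x) first reagent, then RGS4 at 900nM (2x) plus Transcreener GDP mix added; fluorescence polarization (620/688 nm) read before and after 90 min at 30 °C.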
# On the % scale 0 is the no-effect control and ±100 the full control effect; potency means the concentration at half of the fitted maximal effect; tags describe the fitted curve by direction and shape.
SMILES,Potency,"activity change, negative = inhibition"
Oc1ccc(CNc2ccc(F)cc2)c2cccnc12,"inconclusive: 50.1 µM [inhibitor, partial curve, poor fit]",
COc1ccc(N(CC(=O)NCCSCc2ccco2)S(=O)(=O)c2ccccc2)cc1OC,"inconclusive: 89.1 µM [inhibitor, single point]",
CN(C)C(=O)COc1ccc2cc(-c3ccccc3)c(=O)oc2c1,,inactive: 15.6%
Cc1oc2ccc(O)c(CN(C)Cc3ccccc3)c2c1C(=O)Nc1ccccc1,,inactive: -8.8%
O=C1C=C(Nc2ccccc2O)c2ccccc2C1=O,"inconclusive: 17.8 µM [inhibitor, full curve, poor fit]",
O=C(NNC(=S)Nc1ccc(Br)cc1)c1ccccc1Br,"inconclusive: 89.1 µM [inhibitor, single point]",
Cc1cccc(-c2nc3c(c(SCC(=O)N4CCOCC4)n2)Cc2c(CO)cnc(C)c2O3)c1,"inconclusive: 89.1 µM [inhibitor, single point]",
Cc1ccc2c(c1)CCCN2C(=O)CCc1nc2ccccc2c(=O)[nH]1,"inconclusive: 28.2 µM [inhibitor, full curve, poor fit]",
Cc1nc([N+](=O)[O-])c(Br)n1CC(=O)c1ccc2ccccc2c1,,inactive: -25.5% [at 11.4 µM]
COc1ccc(N(CC(=O)N2CCOCC2)S(C)(=O)=O)c(OC)c1,"inconclusive: 70.8 µM [inhibitor, partial curve, poor fit]",
CC(=O)N1CCN(c2ccc(NCc3ccc(F)cc3)cc2)CC1,"inconclusive: 39.8 µM [inhibitor, partial curve, poor fit]",
O=C(Nc1ccc2oc(=O)ccc2c1)c1ccc(-c2cccc([N+](=O)[O-])c2)o1,"inconclusive: 31.6 µM [inhibitor, full curve, poor fit]",
O=C(CSc1nnc(-c2cccnc2)o1)c1cc2ccccc2oc1=O,"inconclusive: 70.8 µM [inhibitor, single point]",
S=C(Nc1cccc2ccccc12)NC1CCCCC1,,inactive: 10.6%
O=C(CSc1nc2ccccc2s1)Nc1cc(C(=O)O)cc(C(=O)O)c1,"inconclusive: 35.5 µM [inhibitor, partial curve, poor fit]",
O=C(c1cc([N+](=O)[O-])ccc1N1CCCCC1)N1CCc2ccccc21,,inactive: -9.94%
Cc1nc(S/C(=C/c2ccc(-c3ccc(Cl)cc3)o2)C(=O)O)n[nH]1,"inconclusive: 17.8 µM [inhibitor, full curve, poor fit]",
O=Cc1ccccc1OCCCOc1cccc2cccnc12,,inactive: 27.8%
CC(C)(C)Cc1nnc(NC(=O)c2ccc3c(c2)OCO3)s1,"inconclusive: 35.5 µM [inhibitor, partial curve, poor fit]",
Cc1ccc(Nc2nc(C)cc(C)n2)c(C(=O)O)c1,"inconclusive: 79.4 µM [inhibitor, partial curve, poor fit]",
CSCCNC(=O)c1ccc(C(C)(C)C)cc1,,inactive: 9.4%
O=C1C(=O)N(CCS(=O)(=O)c2ccccc2)c2ccc(Cl)cc21,"inconclusive: 100 µM [inhibitor, single point]",
COc1ccc(C(=O)O)cc1S(N)(=O)=O,,inactive: -14.8%

SMILES,Potency,"activity change, negative = inhibition"
COc1ccc(NC(=O)CSc2sc3c(O)cc(=O)[nH]c3c2C#N)c(OC)c1,"inconclusive: 70.8 µM [inhibitor, partial curve, poor fit]",
COCc1cc(C)nc(SCC(=O)Nc2ccccc2N2CCOCC2)c1C#N,,inactive: 6.46%
O=S(=O)(c1cccc(F)c1)N1CCC(c2nc3ccccc3s2)CC1,,inactive: 1.43%
Cc1occc1C(=O)NCCCCc1ccccc1,"inconclusive: 89.1 µM [inhibitor, single point]",
Cn1c(Cl)cnc1C1CC(=O)c2cc(Cl)ccc2O1 (stereo not drawn),"inconclusive: 28.2 µM [inhibitor, full curve, poor fit]",
CCOc1ccc(C(=O)NC(=S)Nc2cccnc2)cc1[N+](=O)[O-],"inconclusive: 79.4 µM [inhibitor, partial curve, poor fit]",
O=S(=O)(c1ccc(N=C2NN=C(c3cc(F)ccc3F)CS2)cc1)N1CCOCC1,"inconclusive: 79.4 µM [inhibitor, partial curve, poor fit]",
CCS(=O)(=O)N1CC(=O)N(c2cccc(Cl)c2C)C(C)(C(=O)NC2CCCCC2)C1 (stereo not drawn),,inactive: 15%
O=C(COC(=O)c1ccc(-n2cnnn2)cc1)Nc1cc(Cl)ccc1F,"inconclusive: 44.7 µM [inhibitor, partial curve, poor fit]",
CCOc1ccc(NC(=O)C(NC(=O)C2CCC(C)CC2)C(C)C)cc1 (stereo not drawn),"inconclusive: 100 µM [inhibitor, partial curve, poor fit]",
O=C(O)c1cccc(NC(=S)NC(=O)c2ccc3ccccc3c2)c1,"inconclusive: 56.2 µM [inhibitor, partial curve, poor fit]",
COc1ccc(CCNC(=O)COc2ccc([N+](=O)[O-])cc2)cc1,"inconclusive: 28.2 µM [inhibitor, full curve, poor fit]",
CN1CCN(C(=S)c2ccc(N(C)C)cc2)CC1,"inconclusive: 79.4 µM [inhibitor, partial curve, poor fit]",
O=C1[C@H]2CCC=C[C@H]2[C@H](c2cccc(Br)c2)N1Cc1ccccc1,"inconclusive: 44.7 µM [inhibitor, partial curve, poor fit]",
On1c(-c2ccc(Cl)cc2)nc2ccccc21,"inconclusive: 89.1 µM [inhibitor, single point]",
CCCn1nc([N+](=O)[O-])c(C(C#N)c2nc3ccccc3o2)c(Cl)c1=O (stereo not drawn),"inconclusive: 17.8 µM [inhibitor, full curve, poor fit]",
Cc1ccc(C(=O)N2CCCC2)c(F)c1F,"inconclusive: 44.7 µM [inhibitor, partial curve, poor fit]",
CCc1nc2c(c(SC)nn2-c2ccccc2)c(N)c1C(=O)OC,,inactive: 18.1%
Cc1ccc(/C=N\NC(=O)CCc2n[nH]c(=O)[nH]c2=O)o1,"inconclusive: 50.1 µM [inhibitor, partial curve, poor fit]",
CCOc1cc(CNc2ccc(O)cc2)ccc1OCc1ccc(Cl)cc1,"inconclusive: 79.4 µM [inhibitor, partial curve, poor fit]",
S=c1[nH]nc(COc2ccccc2)n1/N=C/c1ccc(Br)s1,"inconclusive: 100 µM [inhibitor, partial curve, poor fit]",
Cc1c(C(=O)NCc2ccccc2Br)oc2c1-c1[nH]ncc1CC2,,inactive: -6.85%
Cn1nc([N+](=O)[O-])nc1Oc1ccc(C(C)(C)C)cc1,,inactive: -19.6%

SMILES,Potency,"activity change, negative = inhibition"
COc1ccc(CN(C(=O)c2ccco2)c2ccccc2)cc1,,inactive: -7.02%
CCCCOc1ccc(C(=O)CCN2CCOCC2)cc1,"inconclusive: 39.8 µM [inhibitor, partial curve, poor fit]",
CN(CC(=O)NCCCc1ccccc1)Cc1ccc(Br)cc1,,inactive: -8.03%
COc1cc(OC)cc(C(=O)Nc2ccc3nc(N4CCCCC4)cc(C)c3c2)c1,,inactive: -6.68%
N#Cc1c(N)oc(-c2ccco2)c1-c1ccco1,"inconclusive: 56.2 µM [inhibitor, partial curve, poor fit]",
CCCCC(=O)/C=C/n1c(=S)oc2ccccc21,,inactive: -48.3%
O=C(CSc1ccccc1)Nc1nnc(COc2ccc(Cl)cc2)s1,"inconclusive: 79.4 µM [inhibitor, partial curve, poor fit]",
Cc1ccc(CNC(=O)c2ccc3c(c2)nc(C)n3-c2cc(C)cc(C)c2)cc1,,inactive: 6.58%
Cc1nn(S(=O)(=O)c2cccc([N+](=O)[O-])c2)c(C)c1Br,"inconclusive: 89.1 µM [inhibitor, single point]",
COC(=O)c1ccccc1NC(=O)Cn1c(=O)n(Cc2ccc(C(=O)NCc3ccc4c(c3)OCO4)cc2)c(=O)c2ccccc21,"inconclusive: 89.1 µM [inhibitor, partial curve, poor fit]",
CN1C(c2ccc(F)cc2)=CS/C1=C(/C#N)c1nnc(N2CCOCC2)n1-c1ccccc1,"inconclusive: 100 µM [inhibitor, partial curve, poor fit]",
O=C(O)CN1C(=O)/C(=C\c2cccc(OCc3ccc(Cl)cc3)c2)SC1=S,"inconclusive: 31.6 µM [inhibitor, partial curve, poor fit]",
Oc1ccc(Nc2nc(N3CCCC3)c3ccccc3n2)cc1,"inconclusive: 89.1 µM [inhibitor, single point]",
Cc1[nH]c(=S)[nH]c(=O)c1Cc1c(O)ccc2ccccc12,,inactive: -41.9%
Oc1ccccc1N1CCN(c2ncnc3scc(-c4ccccc4)c23)CC1,,inactive: 8.4%
C/C(=N/NC(N)=S)c1ccc(Br)s1,"inconclusive: 79.4 µM [inhibitor, partial curve, poor fit]",
COCCNC(=O)c1c(N)n(CCCn2ccnc2)c2nc3ccccc3nc12,,inactive: 29.7%
CCc1ccc2c(COC(=O)CNS(=O)(=O)c3ccc(NC(C)=O)cc3)cc(=O)oc2c1,"inconclusive: 100 µM [inhibitor, partial curve, poor fit]",
O=C1CC(/C=C/c2ccccn2)=Nc2ccccc2N1,"inconclusive: 56.2 µM [inhibitor, partial curve, poor fit]",
CS(=O)(=O)N1CC2CCCN2c2ccc(C(F)(F)F)cc21 (stereo not drawn),"inconclusive: 50.1 µM [inhibitor, partial curve, poor fit]",
CC(O)CNc1nc2ccccc2n1-c1ncnc2sc3c(c12)CCC3 (stereo not drawn),,inactive: -29.5%
CSc1ccccc1C(=O)Nc1cccc(C(C)=O)c1,"inconclusive: 44.7 µM [inhibitor, partial curve, poor fit]",
